Results on 14 sequences are retold here after the supplement of paper PMC12645437, “Orthogonal IMiD-Degron Pairs Induce Selective Protein Degradation in Cells” (ACS Chemical Biology, 2025).

Some of the results follow.
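Also: jurkat cells carrying a lentiviral library of mutant zinc finger degrons fused to EGFP plus mCherry, mCherry+ cells FACS sorted, degron abundance counted by next-generation sequencing.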

The target of the assay is no compound (DMSO). The experiment in a line: log2 fold change of degron read counts, EGFP-low vs EGFP+ sorted cells; higher = lower degron-EGFP level without compound (poor expression or instability). Conditions: compound: DMSO control; 18 h.
Consider FLCDICGAPFTQKGNLLRHIKL, for which the “log2 fold change of degron read counts” value was -0.801.

As to LWCNQCGFGCTQKGNLLRHIKL, the “log2 fold change of degron read counts” value is 1.67.

FICEICGRIFTQKGNLLRHIKL: the “log2 fold change of degron read counts” value worked out at 0.0282.

FNCPQCGAMFTQKGNLLRHIKL: the “log2 fold change of degron read counts” value was -0.787.

On to FMCEICGRMFTQKGNLLRHIKL, for which the “log2 fold change of degron read counts” value was -0.99.

Take FYCDVCGAYFTQKGNLLRHIKL: the “log2 fold change of degron read counts” value turned out to be 0.044.

For the sequence FNCPICGRYFTQKGNLLRHIKL, the “log2 fold change of degron read counts” value was 0.667.

Turning to FLCPQCGAYFTQKGNLLRHIKL, the “log2 fold change of degron read counts” value was -0.178.

Take FLCSVCGHCFTQKGNLLRHIKL: the “log2 fold change of degron read counts” value is -0.138.

Consider FYCPICGRFFTQKGNLLRHIKL, for which the “log2 fold change of degron read counts” value is -1.57.

With FICEICGREFTQKGNLLRHIKL, the “log2 fold change of degron read counts” value is -2.9.

Take FVCEQCGAFFTQKGNLLRHIKL: the “log2 fold change of degron read counts” value was 0.00323.

On to FFCDICGADFTQKGNLLRHIKL, for which the “log2 fold change of degron read counts” value is -2.46.

With FECSVCGHQFTQKGNLLRHIKL, the “log2 fold change of degron read counts” value is -1.64.
